Assay results from PubChem BioAssay AID1347073 (National Center for Advancing Translational Sciences (NCATS), 2019).
The whole screen tested about 45,000 compounds, of which about 200 (0.44%) were called active. Roughly 7% stayed inconclusive and do not appear here. Calls come from the whole dose curve; as a rule, active = well fitted activation curve with a large enough effect; inconclusive = small, poorly fitted or top-dose-only effect; inactive = no such curve, though single readings can be large or run the other way. The list shows a part of the results.

assay: qHTS of TDP-43 Inhibitors: NCGC Sytravon Library Screen; details: yeast TDP-43 toxicity rescue, BacTiter-Glo growth, 24 h; series mostly up to 46.1 µM; growth rescue (activation): at the top concentration; note: 0% is about no effect; nearly all actives have a fitted effect of over 55% in size
Outline: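 TDP-43-expressing yeast, pregrown in raffinose, seeded at OD600 0.02 in galactose medium with compound for 24 hr at 30 deg C. Growth read by BacTiter-Glo luminescence, so rescue of toxicity appears as activation.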

SMILES | growth rescue (activation)
CC(C)Oc1ccccc1NC(=O)CSc1nccn1C | inactive: -2.13%
Cc1ccc(-n2cc(CNCCc3ncc(C)[nH]3)c(-c3ccc(F)cc3)n2)cc1 | inactive: -5.04%
O=S(=O)(Cc1c(F)cccc1Cl)c1ncn[nH]1 | inactive: -2.33%
CCOCCCNS(=O)(=O)c1ccc(NC(=O)C2CC(=O)N(c3ccc(C)cc3)C2)cc1 (configuration not stated) | inactive: 14.4%
COc1ccc(CCNC(=O)c2ccc3c(c2)OCCO3)cc1 | inactive: 5.12%
O=C(CSc1ccc(C(F)(F)F)cc1[N+](=O)[O-])Nc1ccc2ccccc2c1 | inactive: 19%
CCOc1ccccc1OCC(=O)NCCc1ccc(S(N)(=O)=O)cc1 | inactive: -2.22%
Cc1cc(C)cc(C(=O)Nc2nc3ccccc3[nH]2)c1 | inactive: 4.72%
CN1\C(=C/C=C/C=C/C=[N+](C)C)C(C)(C)c2ccccc21 | inactive: -31.5%
CCOc1ccc(C)cc1S(=O)(=O)n1nc(C)cc1C | inactive: 27.6%
O=C(NCc1ccco1)c1ccc2c(c1)N(Cc1ccc(F)cc1)C(=O)c1ccccc1S2(=O)=O | inactive: 10.1%
Cc1nn(C)c(C)c1NC(=O)COc1ccc(F)cc1Br | inactive: 10.5%
CC(C)Oc1cc(F)ccc1-c1cc(C(=O)Nc2ccc(F)cc2)[nH]n1 | inactive: 7.55%
COc1cc(/C=N/NC(=S)Nc2cccc(C(=O)O)c2)ccc1O | inactive: 6.17%
CCN(CC)c1ccc(/C=C/C(=O)C2C(=O)C=C(C)OC2=O)cc1 (configuration not stated) | inactive: -5.26%
O=S(=O)(Nc1ccccc1O)c1ccc(-c2ccccc2)cc1 | inactive: 10.3%
COc1ccc(CCNC(=S)NC2CCN(Cc3ccccc3)CC2)cc1OC | inactive: -0.0932%
CSc1ncc(C(=O)Nc2ccc(C)cc2C)c(C)n1 | inactive: -16.1%
CC(=O)NN1C(=O)/C(=C\c2ccc(O)cc2)SC1=S | inactive: -32.8%
O=C(Oc1ccc2ccc(=O)oc2c1)c1cccs1 | inactive: -0.943%
COc1ccc(/C=N/OCC(=O)N=Nc2c(O)[nH]c3ccc(Br)cc23)cc1OC | inactive: 9.32%
COc1ccc(CC(=O)N/N=C/C=C/c2cccc([N+](=O)[O-])c2)cc1OC | inactive: 13.3%

SMILES | growth rescue (activation)
Cc1ccc(C(O)c2ncc(-c3ccc(F)cc3)[nH]2)c(C)c1 (configuration not stated) | inactive: 15.5%
CC(Oc1cccnc1[N+](=O)[O-])C(=O)N1CCc2ccccc21 (configuration not stated) | inactive: -6.76%
CC(=O)NCCNc1nc2cc(-c3cnn(CCC(C)C)c3)sc2c(=O)n1C | inactive: 10.9%
O=C(NCc1cccnc1)c1ccc(Cl)c(S(=O)(=O)N2CCOCC2)c1 | inactive: 12.4%
FC(F)(F)c1cccc(Cc2noc(CN3CCCCC3c3ccccn3)n2)c1 (configuration not stated) | inactive: 9.67%
O=C(NN1CCOCC1)c1ccccc1Br | inactive: 3.36%
COc1ccc(NC(C)c2ccccc2)cc1 (configuration not stated) | inactive: 0.904%
COC(=O)c1sc(S(=O)(=O)N2CCN(CCO)CC2)c(C(=O)OC)c1C | inactive: -0.318%
Cn1c(=O)c2cc(NC(=S)NC3CC3)ccc2n1Cc1ccc(F)cc1 | inactive: 6.87%
O=C(Nc1ccc(N2CCCC2)cc1)C(Cl)c1ccccc1 (configuration not stated) | inactive: 5.75%
O=C(NN1CCOCC1)c1cc(S(=O)(=O)Nc2cccc(C(F)(F)F)c2)ccc1Cl | inactive: -3.91%
CN1C(=O)/C(=C/c2ccc3c(c2)OCO3)N=C1c1ccccc1 | inactive: 11%
C=CCn1c(SCC(=O)NC2CCCC2)nnc1-c1ccccn1 | inactive: -13.9%
O=C(N/N=C/c1ccccc1F)NC1CCCCC1 | inactive: 15.9%
CCN1CCN(CC(=O)N/N=C/c2ccc(F)cc2F)CC1 | inactive: 9.23%
CC1=CC(C)(C)N(C(=O)CSc2nnc(N)s2)c2ccccc21 | inactive: -1.19%
Cc1ccc2cc(CCNS(=O)(=O)c3ccc(Cl)cc3)c(=O)[nH]c2c1C | inactive: 7.83%
CCC(Oc1ccccc1)C(=O)Nc1ccc(S(=O)(=O)Nc2cc(C)on2)cc1 (configuration not stated) | inactive: 2.23%
Cc1cc(=O)[nH]c(SCC(=O)Nc2nc(-c3ccccc3)c(-c3ccccc3)o2)n1 | inactive: 10.3%
O=C1OC(c2ccccc2)/C(=C(/O)c2ccccc2)C1=O (configuration not stated) | inactive: -33.3%
Nc1ccc(Cl)cc1C(=O)OCC(=O)NC1CCS(=O)(=O)C1 (configuration not stated) | inactive: -8.94%
Cc1ccc(S(=O)(=O)c2ccc(-n3nc(C)cc3N)cc2)cc1 | inactive: 1.67%

SMILES | growth rescue (activation)
OCCN1CCN(c2nccn3ccnc23)CC1 | inactive: 5.53%
O=C(Nc1ccc(Br)cn1)c1ccc([N+](=O)[O-])cc1Cl | inactive: 23.4%
COc1ccc(OC)c(Cc2nnc(CCC(=O)NCc3nc4ccccc4s3)o2)c1 | inactive: 3.99%
COCCNCCOc1ccc(C)cc1[N+](=O)[O-] | inactive: 8.54%
CC1CCN(C(=O)COC(=O)c2ccccc2C(=O)c2ccccc2)CC1 | inactive: 29%
O=C(NCCCNC(=O)c1cc(Cl)ccc1Cl)c1cnccn1 | inactive: 9.39%
C/C(N)=C(/C#N)C(=O)COC(=O)c1cc(-c2ccc(C)cc2)nc2ccccc12 | inactive: 12.1%
CC(C)CC(OC(=O)c1ccco1)C(=O)NC1CCCCC1 (configuration not stated) | inactive: 22%
COc1ccc(OCCN2CCN(C(=O)c3ccc(OC)c(OC)c3)CC2)cc1 | inactive: -5.13%
O=C(NCCCN1CCCCCC1)c1ccc2c(c1)NC(=O)C(N1CCOCC1)S2 (configuration not stated) | inactive: 8.33%
COc1ccccc1Cn1c(=S)[nH]c2ccccc2c1=O | inactive: 15.9%
C=CCc1ccccc1OCCSc1nc2ccc([N+](=O)[O-])cc2s1 | inactive: 10.8%
C=C(C)COc1ccc2c(CC)cc(=O)oc2c1C | inactive: 6.07%
COc1ccc(NCc2nnc(SCC(=O)Nc3nc(-c4ccccc4)cs3)n2-c2ccccc2)cc1 | inactive: 13.4%
CCN1CCN(C(=S)c2ccc(OCC(=O)NCc3ccccc3)cc2)CC1 | inactive: 6.54%
C/C(=N/NC(=O)c1cc(C)[nH]n1)c1ccco1 | inactive: -1.97%
O=C(NCCc1cnn(-c2ccccc2)c1)c1cc(COc2c(F)cccc2F)on1 | inactive: 0.113%
O=C(Nc1ccc(F)c(Cl)c1)Nc1nnc([C@@H]2O[C@H](CO)[C@@H](O)[C@H]2O)s1 | inactive: 2.98%
CN(C)/C=N/n1cnc2ccccc2c1=O | inactive: -6.78%
O=S(=O)(Nc1cccc(S(=O)(=O)N2CCCCC2)c1)c1ccccc1F | inactive: -14.6%
CC(C)NC(=O)c1cc(C2CCCCN2S(=O)(=O)c2ccc(C#N)cc2)on1 (configuration not stated) | inactive: 14.2%
Cc1cc(C)cc(NC(=O)C(OC(=O)c2ccc([N+](=O)[O-])o2)c2ccccc2)c1 (configuration not stated) | inactive: 8.94%

SMILES | growth rescue (activation)
CCCn1c(N)c(N(CCOC)C(=O)c2cc3c(s2)CCC(CC)C3)c(=O)[nH]c1=O (configuration not stated) | inactive: 17.3%
CCn1c(CC(=O)Nc2ccccc2Cl)nnc1SCC(=O)NC1CCCC1 | inactive: 14%
COc1ccc(CCNC(=O)CN2C(=O)NC3(CCCCC3C)C2=O)cc1 (configuration not stated) | inactive: 3.72%
Cc1ccc2nc3c(c(N)c2c1)CCN3C | inactive: -4.4%
COc1ccc(-c2nnn(CC(=O)N(CCCN3CCOCC3)C(C(=O)NC3CCCC3)c3ccc(C)o3)n2)cc1 (configuration not stated) | inactive: 0.139%
CN(C)c1cccc(C(=O)NCc2ccc3c(c2)OCO3)c1 | inactive: 11.7%
CC(C)C(NC(=O)c1ccccc1F)C(=O)Nc1ccc2c(c1)OCO2 (configuration not stated) | inactive: 12.8%
COc1cc(C2C(C(=O)c3ccco3)=C(O)C(=O)N2CC2CCCO2)ccc1O (configuration not stated) | inactive: -3.48%
CCc1nnc(NC(=O)c2ccc(S(=O)(=O)N3CCCC(C)C3)cc2)s1 (configuration not stated) | inactive: 4.19%
Cc1ccc2c(c1)c1c(n2CC(O)CN2CCCCCC2)CCCC1 (configuration not stated) | inactive: -11.3%
CC1(C)CC2CC(C)(CN2C(=O)c2cc(-c3ccc(F)cc3)on2)C1 (configuration not stated) | inactive: 4.81%
O=C(CCc1ccc(O)c(O)c1)NNC(=S)NCCc1ccccc1 | inactive: 3.4%
Cc1cc(C(=O)N2CCC2(C)C(=O)Nc2ccc3[nH]ncc3c2)nn1C (configuration not stated) | inactive: -7.77%
CS(=O)(=O)N1CCCC(C(=O)Nc2ccc(Br)cc2F)C1 (configuration not stated) | inactive: -2.51%
Cc1cc(S(=O)(=O)Nc2cccc(C(=O)O)c2)c(C)c(S(=O)(=O)c2ccc(Cl)cc2)c1 | inactive: 8.34%
S=C(Nc1ccccc1Cl)N1CCN(Cc2ccccc2)CC1 | inactive: 10.9%
Cc1ccsc1C(C(=O)NCc1ccccc1)N(C(=O)c1csnn1)c1ccccc1 (configuration not stated) | inactive: -3.37%
CCCn1nc(C(=O)Nc2nc3ccccc3[nH]2)c2ccccc2c1=O | inactive: -8.38%
CNC(=O)C1Cc2c(-c3ccccc3Oc3ccccc3)ccnc2O1 (configuration not stated) | inactive: 1.24%
Cc1ccnc(NC(=O)CCCOc2ccccc2)c1 | inactive: 8.76%
COC(=O)C1=C(C)N(c2ccc(OC)cc2)C(=O)/C1=C\c1cccs1 | inactive: 15.6%
CS(=O)(=O)c1ccc(C(=O)N2CCN(S(=O)(=O)c3ccc(C4CCCCC4)cc3)CC2)cc1 | inactive: 3.94%

SMILES | growth rescue (activation)
COc1cccc(CN(CC(=O)NC2CCCCC2)C(=O)c2csnn2)c1 | inactive: -15.9%
CCC1OC2(C)OC(=N)C1(C#N)C(C#N)(C#N)C2c1ccccc1 (configuration not stated) | inactive: 6.05%
O=C(Nc1nccs1)c1csc([C@H]2C[C@H](O)[C@@H](CO)O2)n1 | inactive: 25.3%
CC1=C(C(=O)Nc2ccc(F)c(F)c2)C(c2cccs2)NC(=S)N1 (configuration not stated) | inactive: 19.4%
O=S(=O)(/N=C(/Nc1ccc(F)cc1F)c1ccccc1)c1ccccc1 | inactive: 22.1%
O=C(Nc1ccccc1C(=O)O)c1cc(S(=O)(=O)NCc2ccccc2)ccc1Cl | inactive: -3.78%
COc1ccc(OCC(=O)N/N=C/C=C/c2ccccc2)cc1 | inactive: 25.1%
Cc1c(C=O)c2ccccc2n1CC(=O)NC(C)c1ccccc1 (configuration not stated) | inactive: 2.37%
Cc1ccsc1CN(C)CC(=O)Nc1ccc([N+](=O)[O-])cc1Cl | inactive: -6.77%
O=S(=O)(c1ccc(F)cc1)N1CCC2(CC1)OCCO2 | inactive: 5.27%
CC(C)[C@H](NC(=O)OCc1ccccc1)C(=O)OCC(=O)N1CCCCC1 | inactive: 10.4%
CC(C)(C)C1c2[nH]c3ccccc3c2CCN1CCCn1cccn1 (configuration not stated) | inactive: 9.73%
Cn1c(N)c(Sc2ccccc2[N+](=O)[O-])c(=O)n(C)c1=O | inactive: -8.28%
CC1CCN(S(=O)(=O)c2ccc3c(c2)CCN3C(=O)Nc2ccc(Br)cc2F)CC1 | inactive: -0.987%
COc1ccc(NC(=O)c2oc3ccccc3c2NC(=O)c2ccc(OC)c(OC)c2)c(OC)c1 | inactive: 22%
O=C(/C=C/c1ccc(S(=O)(=O)N2CCOCC2)cc1)Nc1cc(F)ccc1F | inactive: 19.6%
O=C(CNC(=O)c1ccc(Cl)cc1)NNc1c(F)c(F)cc(F)c1F | inactive: -5%
O=C(CCC(=O)c1cccs1)OCC(=O)N1CCN(C(=O)c2ccco2)CC1 | inactive: 12.8%
CC(C)CSC1=NSC2=NC(=O)/C(=C\c3coc4ccccc4c3=O)C(=N)N12 | inactive: 21.7%
